Experimental data from PubChem BioAssay AID463173 (ICCB-Longwood Screening Facility, Harvard Medical School, 2010).
In all, about 52,000 compounds went through this assay and about 4,300 (8.3%) were called active. Rule as the data show it: active = survival mostly below about 52% (no sharp cut-off); inactive = mostly above about 56%. Some of the results follow.

These compounds were tested on DeltatarO mutant (assay: growth inhibition of S. aureus wild type versus tarO mutant, primary screen, teichoic acid synthesis inhibitors, RN4220, OD600 (AID 463173)). Details: OD600, 18 h, active compounds read low, screened at 18.75 µg/mL (by protocol).
For `CC(C)OCCCNC(=O)CCCn1c(SCC(=O)c2ccc(Br)cc2)nc2c(sc3ccccc32)c1=O`, the survival was inactive: 74%. In the case of `COc1ccc(CNC(=O)c2cnn3c(C)c(Cc4ccc(F)cc4)c(C)nc23)cc1`, the survival is reported as inactive: 80%. In the case of `Cc1cc(C)c(NC(=O)Cn2c(=O)n(CCCCC(=O)NCc3ccccc3Cl)c(=O)c3ccccc32)c(C)c1`, the survival is reported as inactive: 76%. In the case of `COc1cc(CN(CC2CCCO2)C(=O)c2ccccc2F)cc(OC)c1OC` (stereo unspecified), the survival is reported as inactive: 70%. For `COc1ccc(CNC(=O)CCCn2c(SCC(N)=O)nc3cc4c(cc3c2=O)OCO4)cc1`, the survival was inactive: 86%. `O=C(NCc1ccncc1)c1c(O)c2ccccc2[nH]c1=O` was tested, and the survival was inactive: 88%. In the case of `Cc1cc(Nc2cccc(Cl)c2C)n2nc(Cc3ccccc3)nc2n1`, the survival is reported as active: 49%. For `CCOc1ccccc1NC(=O)Cn1c(=O)n(Cc2ccccc2)c(=O)c2c(C)c(C(=O)N(C)C)sc21`, the survival was inactive: 74%. With `CCN(CC)C(=O)CSc1nc2cc3c(cc2c(=O)n1Cc1ccc(C(=O)NCCc2ccc(OC)c(OC)c2)cc1)OCO3` the survival was inactive: 78%. For `COc1cc(Cl)c(C)cc1NC(=O)c1cn(CC(C)C)c(=O)c2cc(OC)c(OC)cc12`, the survival was active: 42%. With `O=C(NNc1ncnc2c1cnn2-c1ccccc1)c1cccc(Cl)c1` the survival was inactive: 144%. In the case of `CC(C)Cn1c(=O)c2ccccc2n2c(-c3cccc(Cl)c3)nnc12`, the survival is reported as inactive: 96%. In the case of `COc1ccc(C(=O)NCc2nnnn2-c2ccc(C)c(C)c2)cc1`, the survival is reported as inactive: 64%. `COc1ccc(Cl)c(Cn2c(NCCN)nc3c2c(=O)n(C)c(=O)n3C)c1` was tested, and the survival was active: 56%. `Cc1ccc(Cl)cc1NC(=O)Cn1nc2c(cc1=O)CC(C)CC2` (stereo unspecified) was tested, and the survival was inactive: 69%. For `CCOc1ccc(NC(=O)CN2C(=O)COc3ccc(S(=O)(=O)Nc4ccccc4)cc32)cc1`, the survival was inactive: 76%. For `COc1ccc(C(=O)Nc2ccc3nc4n(c(=O)c3c2)CCCCC4)cc1OC`, the survival was inactive: 91%. With `CCCCc1nn2c(=O)cc(COC(=O)c3ccccc3NC(=O)C(C)(C)C)nc2s1` the survival was inactive: 86%. `Cc1cc(NS(=O)(=O)c2ccc(NC(=O)COc3ccc(Br)cc3C)cc2)no1` was tested, and the survival was active: 32%. In the case of `Cc1[nH]c(=O)[nH]c(=O)c1C1N2CC3(C(C)C)CN1CC(C(C)C)(C2)C3=O` (stereo unspecified), the survival is reported as inactive: 82%. In the case of `CCOC(=O)c1ccc(NC(=O)CN2C(=O)c3cccnc3Oc3ccc(Cl)cc32)cc1`, the survival is reported as inactive: 78%. `Cc1ccc(N2CCn3c2nc2c3c(=O)n(CCc3ccccc3)c(=O)n2C)cc1C` was tested, and the survival was inactive: 78%. `N#Cc1ccc(-c2cccs2)nc1SCc1ccc(Cl)cc1Cl` was tested, and the survival was inactive: 74%. With `CCOc1ccc(NC(=O)N2CCOc3ccccc32)cc1` the survival was inactive: 84%. In the case of `CCc1ccccc1NC(=O)CSc1nnc(-c2nonc2NC(C)=O)n1C`, the survival is reported as inactive: 52%. For `Cc1ccnc(NC(c2ccccc2F)c2ccc3cccnc3c2O)c1` (stereo unspecified), the survival was active: -1%. For `Cc1ccc(Cl)cc1Nc1nc2ccccc2n2c(C)nnc12`, the survival was inactive: 67%. For `O=C1NC(c2ccccc2)Oc2ccccc21` (stereo unspecified), the survival was inactive: 111%. For `CCCOc1ccccc1Cn1c(=O)sc2ccccc21`, the survival was active: -2%. For `COc1ccc(Br)cc1CNC(=O)CCCn1c(=O)c2cccn2c2ccccc21`, the survival was active: 39%. For `Cc1cccc(-c2nnc(-c3ccccc3)o2)c1`, the survival was inactive: 63%. In the case of `CC(C)c1ccc(NC(=O)N2CCCC2C(=O)Nc2ccc(-n3cnnn3)cc2)cc1` (stereo unspecified), the survival is reported as inactive: 100%. For `CCC(C(=O)Nc1cccc(-c2cn3cccnc3n2)c1)c1ccccc1` (stereo unspecified), the survival was inactive: 86%. For `CCC(Oc1ccccc1F)C(=O)Nc1c(C(=O)c2ccccc2)oc2ccccc12` (stereo unspecified), the survival was inactive: 53%. In the case of `CC(C)(C)OC(=O)N1CCC(c2c(C(=O)NCc3ccc4c(c3)OCO4)cnn2-c2ccc(F)cc2F)CC1`, the survival is reported as inactive: 83%. With `O=C(Nc1ccc(Cl)cc1)C1CCN(c2nc3ccccc3n3cccc23)CC1` the survival was inactive: 77%. `Cc1ccn2c(c1)nc(=O)c1cc(S(=O)(=O)N3CCC(C)CC3)c(Cl)cc12` was tested, and the survival was inactive: 87%. In the case of `CCCCN(C)CCNC(=O)c1cc(-c2cccnc2)nc2ccc(S(=O)(=O)N3CCC(C)CC3)cc12`, the survival is reported as inactive: 80%. With `O=C(COc1ccccc1F)Nc1ccc(C(=O)OCc2cc(=O)n3nc(C4CC4)sc3n2)cc1` the survival was inactive: 109%. With `CCc1ccc(-n2c(C)nnc2SCc2nc(-c3ccc(OC)cc3)no2)cc1` the survival was inactive: 68%. `Cc1ccc(-c2cc3ncc(C(=O)c4cc([N+](=O)[O-])ccc4O)cn3n2)cc1` was tested, and the survival was active: 8%. `Cc1ccc(NC(=O)CCSCCc2ccccn2)cc1` was tested, and the survival was inactive: 93%. In the case of `COc1ccc2cc(CN(Cc3nnnn3Cc3ccccc3)C3CCCC3)c(=O)[nH]c2c1`, the survival is reported as inactive: 96%. For `COc1cccc(CC(NC(C)=O)C(=O)NC2CCN(c3nc(C)cc(C)n3)CC2)c1OC` (stereo unspecified), the survival was inactive: 88%. With `Cc1ccccc1CNC(=O)c1ccc(-n2c(C)cc3c2CCCC3)cc1` the survival was inactive: 79%. `COc1ccccc1CNC(=O)C1CCN(Cc2nc(-c3ccc(OC)c(OC)c3)oc2C)CC1` was tested, and the survival was inactive: 128%. With `CC(=O)NS(=O)(=O)c1ccc(NC(=O)c2ccco2)cc1` the survival was inactive: 72%. In the case of `CN(C)c1ccc(C(CNS(=O)(=O)c2ccc(Cl)cc2)N2CCCC2)cc1` (stereo unspecified), the survival is reported as active: 0%. In the case of `CC1=C(C(=O)Nc2ccc(C)cc2C)C(c2ccccc2C)n2ncnc2N1` (stereo unspecified), the survival is reported as inactive: 100%. For `Cc1cccc(-c2nc3c(C#N)c[nH]n3c2NC2CCCCC2)c1`, the survival was inactive: 46%. In the case of `COc1cc(C(=O)NCC(c2cccnc2)N2CCN(c3ccc(F)cc3)CC2)cc(OC)c1OC` (stereo unspecified), the survival is reported as inactive: 82%. `Cc1nn(-c2ccc3nncn3n2)c(C)c1CCC(=O)Nc1ccc(OC(F)(F)F)cc1` was tested, and the survival was inactive: 82%. With `COc1cc(NC(=O)c2noc3c2CCc2ccccc2-3)cc(OC)c1OC` the survival was inactive: 88%. For `CCCN(CCC)C(=O)Cn1c(=O)n(Cc2ccc(C(=O)NCCc3ccc(OC)c(OC)c3)cc2)c(=O)c2ccccc21`, the survival was inactive: 116%. `CCCN(C(=O)c1cc2c(Cl)nc3ccccc3c2s1)c1cccc(C)c1` was tested, and the survival was active: 31%. With `COCCNC(=O)c1ccc(Cn2c(SCC(=O)NC(C)C)nc3ccccc3c2=O)cc1` the survival was inactive: 92%.
